Results: the supplement of paper PMC12632987
Over roughly 4,500 sequences, “median log2 fold change of GCK-ALFA target abundance (FLAG IP / Myc IP barcode read proportion)” has its median near 0.078; the lowest 2% begin near -0.6. This is one part of the list.

B1: GBRAP_128_3600 (protein)
chain: AAEEAREKAREMMEKIKESNLEEAAKIAKELGEYLLTLSLEEVEAAAEEIIKRAPELSEDKLLILQDALHAAAQKASPEKAEVLLYALGELGEEAYEKEE
B2: GBRAP_177_5012 (protein)
chain: SVVEQAEAALDDLEALLALVKSTDFSKLSKEEALALIAILAKAIAKHGYDEEAVEALAKLILAAMKYHGVTLGELLGIVIEHVDADTAEKVLERVEKLRE
B3: GBRAP_35_5596 (protein)
chain: ELDELAVESTIDMIEALIEGVPELPVDTLAAIARTLAREVRELAEELKDNKEALKRLREAVERLREALERHHADDPRAQEVIKELREVAKYLEELAKEVE
B4: GBRAP_78_6677 (protein)
chain: EVEEELEKAMEELSKAAKILNKMNTEEALDILGKVIDVLEIVWEAYNGEADLEELEEALKLLKEALEETKKINTEEAKKAAEHLEKAIEHLEKAIKLLKK
B5: GBRAP_160_4460 (protein)
chain: MEKIKKYVEDLVADVKAELEANKDDSNENIINAASIVIGSHLMEAVDEGILTDEQEEILMKAMDEIEELKKTLPDASPEEIIAKIKEIIDKMAKEILESA
B6: GBRAP_160_4212 (protein)
chain: GEKIEEIIKMIKEATEEVIKLIPEESREEVANFAAVEYGSVLMEAVDMGEENDEILDTIADAADEIVATLLANKDASDEEVAAKLKAITEKAIEEIKKIA
B7: GBRAP_160_4174 (protein)
chain: SETLEEAKKEIKEIFEEAYEMMKGQTAEERAAIARVAFGEVILLLEEKGLLTDELDEYIEEVEEEVVNYILENPDLTDEELKKLLEEAREKIIKALEESS
B8: GBRAP_95_7042 (protein)
chain: DDDVLATESAAEVLETAVALGDKEAARKAAKELLELLAETPVEKVKLDLSPETAKAIIAVAKETYDRETAIALLEKLAAVLTNPEVKALALAAAAALRAE
B9: GBRAP_48_5839 (protein)
chain: SEARREAAVEAILAVIRETAELLEEAKAEGLSEAAFEAILIDAAEEIAEILERYLGLGEAWRALPLEEQLARVRELVEILRTEGEEAAREAIRRWIDELE
B10: GBRAP_125_3017 (protein)
chain: AEEELAAALGLIARRLGLSEAEIEELRRLAREHGVKGAMIALALAEGWEELADLLEQLSEEEVAAVVRRVAAALRADPSLTPEELRALLLAEARAALAAS
B11: GBRAP_184_5328 (protein)
chain: KTVEVHIPNKSLEEIVKEFEKAAAEAAAKGADLVVHVDASGYSSEELVELLERMGKIAKEKGIKNVTVGLDVEVDEETADKLIEVADKYGIKLTLALSDE
B12: GBRAP_184_5051 (protein)
chain: KILERTIKAENLEELKKKLEELKKELENFKGKLIVHVEMPKFTEEMVRLIIETLKEILEEGYVDSVTVGLDGEMSEEVVDLAVKLAKEAGINVVLALEEE
B13: GBRAP_160_4752 (protein)
chain: SEELEKLRKEVEEIFEEGEELLKEVPASEAPTVVKGTMGEVLMLVFSSEAASDELEEEVGKIVDETEKEAAANANAPVEEHIALLRKAKKEILEAIDKEI
B14: GBRAP_9_7160 (protein)
chain: LQALIDEIQAVINDAFDEVAEIVPAEHRPVVDAARAEAEATFAALKADPTTTKEQAVETAKQLLRDALARIAAVVDPETARMAEAIILTAELEIEEIAEK
B15: GBRAP_52_5853 (protein)
chain: MEERARELARRLVELALAGDREGLRRELEELVRTLSEEEILEILRELAELAKTATPEEVDAIVEVAIELADIAEEAGFDEWELSAALADVGKAAYENLQK
B16: GBRAP_80_6777 (protein)
chain: AVEEAEKAIKELEKLDPELAERAKKILEKLKEQGASDEVFKAFAEAVKAIAKLVELGLEEEAKELLKEMEEAAEEEDQENRLAMFRGIAGEALLAVEEAE
B17: GBRAP_95_7035 (protein)
chain: EDDKLALESDLEVAVAAAELGDEEAAARALRRALELLEKAGKVKLDPELLKETIEVVLRVGVKRLPKEEVLRLLELLLEDAETEEVKELAKKAIEEVKER
B18: GBRAP_78_6587 (protein)
chain: KIDEAIDEFLKAVGETMRLLSKDPSELAQDLLGELIDESSAILEAYEEENDKEKILKEAKAALEALKKALEKREQFSPELVKAIEEAAKAAEKLIKLLEE
B19: GBRAP_48_5841 (protein)
chain: EEEKLEKAIEEILKVIEETAELLEELEEEGLSEAAFEAVLIDAAEEIEEILEKYLGLGEEFKKLPLEERLKIVRELVEIYREEGREAARKRIREFIESLK
B20: GBRAP_160_4224 (protein)
chain: METVEKLVKIFRENFEEALELIEGESLEEQKVILDVAAGEVILEAEEIEEATEEMVEIVDKKAEEAREELLEAREASKEEKRKLIEEHAEKLRKELEKVA
B21: GBRAP_52_6181 (protein)
chain: MRAAIRAALEEIFALVKEGRLDEARAKAEALVASLDDAELRLLVEEYGAFAAEQPLENEDDVFRTAEIIAEAIEAAGKDEALAEDLLAAAAAALYKKRLA
B22: GBRAP_52_6141 (protein)
chain: MSEELKAQAQQIIELVKAGKLDEAQALADKLVKENNDEELKEFADEFAEVIESLRPEEIDYAAQALEILVDSMEKAGRDPEIISYLIGKSTTAMYKVELK
B23: GBRAP_184_5125 (protein)
chain: TLVRATVEGEDAEELIAAARAVVEAAAAAGARLDLHVIARNMSTEEVIRVIKALGELQKAHPQVRIILDVEDEKSDEEIDRLVAAADEAGVRLVLAIPEE
B24: GBRAP_160_4699 (protein)
chain: SATAEKLKKYATEEFERAKELIVGESREQRAIIVEGIGGEIIMELIENEEVSDELVDEVDAIIDALVATILANPNLTDEELKKLIDDALAKIKAAIDKHL
B25: GBRAP_14_3832 (protein)
chain: MEEVEKVIKETLEEIREELIDMFPEKAEEIKARIEEILKKALKLLKETKDVEKTLKYIKEELLAAVDEILADESPEARAAARALVINEVAEAELEIEELK
B26: GBRAP_184_5244 (protein)
chain: MVLERELVAKTPEEAKEKLAALREEARASGAKVELTLTLEDADEELVKAAMEGIKELREEGLLERAEVVIESYKSEEVLDLAMELAHEVGVDALWYNDNP
B27: GBRAP_78_6735 (protein)
chain: DLEKELKEVLEETIKLMDEIIKNSEKFSEETLGEAVEALNYALLADLSGGDLELLEETAKALKELIKLLEKEKTPLAKELAKKAKELLKKLEEIIKKKKE
B28: GBRAP_122_2956 (protein)
chain: SEEERIEELVEETLRRAEEGDPAEALFEALKRAAEEFDAESLIELADRLKEAFLERGWEAEALRAYARAAQWLAENKPELAEAADHLADLALELLDRLEE
B29: GBRAP_160_4541 (protein)
chain: SEKVEKLIKDIEEEEEEIKELVGEISNEELINFVSVEIGSIILEGIELGIFSDELEEEIDEIEEELIEKLKENKNASPEEKKAIIEEAAKKIKEAIKKSS

Biological target: GABARAP, O95166
Sequence (O95166 whole entry, the tested form may be a part): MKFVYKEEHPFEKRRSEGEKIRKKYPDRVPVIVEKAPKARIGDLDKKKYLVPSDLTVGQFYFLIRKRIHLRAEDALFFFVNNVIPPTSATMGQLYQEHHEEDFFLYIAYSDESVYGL
Assay: median log2 fold change of GCK-ALFA target abundance (FLAG IP / Myc IP barcode read proportion) (log2 ratio); each designed protein is fused to an ALFA-tag nanobody in HEK293 cells to bring the named protein to FLAG-tagged glucokinase (GCK); Myc marks an untargeted standard; higher = target protein stabilised (more abundant)
Details: target protein: 3xFLAG-MCP-GCK-ALFA reporter; HEK293 landing pad (RPLP)
Protocol: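 LABEL-seq trans screen in HEK293 landing-pad cells. Each de novo designed 100-aa effector handle, binding the indicated effector (E3 ligase, DUB or autophagy protein), is fused to a constant NbALFA target handle and induced with 2 ug/mL doxycycline. A FLAG-MCP-GCK-ALFA target and a Myc-MCP standard reporter were transfected, and after 48 h circRNA barcodes were recovered by anti-FLAG and anti-Myc IP and sequenced. The value is the median across barcodes (at least 3 per design) of log2(FLAG/Myc read-proportion ratio), with the two transfection replicates pooled. Negative values mean degradation and positive values mean stabilisation of the target.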

Row | Binder | median log2 fold change
1 | B1 | 0.418
2 | B2 | 0.215
3 | B3 | 0.0872
4 | B4 | -0.499
5 | B5 | 0.184
6 | B6 | -0.329
7 | B7 | -0.374
8 | B8 | 0.332
9 | B9 | 0.103
10 | B10 | 0.0319
11 | B11 | 0.132
12 | B12 | 0.0143
13 | B13 | 0.156
14 | B14 | 0.116
15 | B15 | -0.459
16 | B16 | 0.309
17 | B17 | 0.117
18 | B18 | 0.126
19 | B19 | 0.175
20 | B20 | -0.617
21 | B21 | 0.0935
22 | B22 | 0.234
23 | B23 | 0.0858
24 | B24 | -0.0172
25 | B25 | 0.204
26 | B26 | 0.0102
27 | B27 | -0.101
28 | B28 | -0.0195
29 | B29 | -0.191
